Reference: PubChem BioAssay (NCI)
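Method: 48-hour compound exposure of cells in 96-well plates, five concentrations, linear interpolation of endpoints. The concentration for 50% growth inhibition is given as GI50. TGI: concentration producing complete growth inhibition.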

Tested on: NCI-H322M lung
Test: inhibition of tumour cell growth, NCI panel, 48 h

CC(C)(O)/C=C/C(=O)[C@](C)(O)[C@H]1[C@H](O)C[C@@]2(C)[C@H]3CC=C4[C@@H](C[C@H](O)C(=O)C4(C)C)[C@]3(C)C(=O)C[C@]12C
GI50: 742 nM | TGI: > 16700 nM
